PubChem BioAssay AID488969 (Vanderbilt High Throughput Screening Facility, 2010)
Over roughly 110,000 compounds, “z-score” has its median near -0.1; the highest 2% begin near 2. Some of the results follow. Calls of active or inactive are those of the source.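 Rule for the calls: active = z-score in the third read window above 3 or below -3; inactive = the rest.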

Target: Metabotropic glutamate receptor 8 (Rattus norvegicus) (UniProt P70579)
Experiment: rat mGluR8 modulators via GIRK flux, primary screen, cell-based, thallium flux, HTS (AID 488969)
Settings: HEK293 rat mGluR8, GIRK (G protein-gated inwardly rectifying potassium channel) thallium flux, FluoZin2; at 10 µM; stronger effect = higher value; submaximal glutamate (EC20) added with thallium

Sequence of UniProt P70579 (P70579 whole entry, looked up): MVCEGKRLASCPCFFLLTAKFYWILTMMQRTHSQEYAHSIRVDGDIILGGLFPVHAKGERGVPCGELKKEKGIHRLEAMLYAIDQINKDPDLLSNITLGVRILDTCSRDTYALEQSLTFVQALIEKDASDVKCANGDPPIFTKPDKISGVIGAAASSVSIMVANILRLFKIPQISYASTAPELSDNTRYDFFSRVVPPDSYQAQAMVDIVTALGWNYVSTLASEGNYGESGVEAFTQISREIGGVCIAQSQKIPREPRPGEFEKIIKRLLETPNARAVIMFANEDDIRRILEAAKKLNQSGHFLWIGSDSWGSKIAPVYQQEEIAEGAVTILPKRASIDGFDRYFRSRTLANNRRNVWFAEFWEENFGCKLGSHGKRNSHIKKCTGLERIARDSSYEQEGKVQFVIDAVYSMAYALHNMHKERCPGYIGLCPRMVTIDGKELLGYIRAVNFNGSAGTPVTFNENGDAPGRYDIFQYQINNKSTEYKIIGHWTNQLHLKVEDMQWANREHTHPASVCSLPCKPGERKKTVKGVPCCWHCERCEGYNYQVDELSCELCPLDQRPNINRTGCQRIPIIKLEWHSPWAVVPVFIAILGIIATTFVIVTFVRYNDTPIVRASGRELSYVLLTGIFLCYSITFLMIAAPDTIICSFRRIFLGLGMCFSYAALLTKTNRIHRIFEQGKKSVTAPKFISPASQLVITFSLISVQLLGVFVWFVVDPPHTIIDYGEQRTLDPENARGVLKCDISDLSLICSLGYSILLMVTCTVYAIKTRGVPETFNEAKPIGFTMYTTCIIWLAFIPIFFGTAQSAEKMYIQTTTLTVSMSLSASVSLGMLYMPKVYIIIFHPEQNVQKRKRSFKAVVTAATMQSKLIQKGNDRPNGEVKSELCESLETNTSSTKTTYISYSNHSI

Compound | z-score
CCN(CC)c1ccc(/C=N/N2CCOCC2)c(O)c1 | -0.0856
COc1ccc(COCC(O)CN(Cc2ccco2)Cc2ccccc2O)cc1 (centres undefined) | -0.409
COc1ccc(C2C(C(=O)Nc3cc(C)on3)c3ccccc3C(=O)N2C)cc1OC (centres undefined) | -0.408
O=C1C2C(c3ccccc3)C=CC(c3ccccc3)C2C(=O)N1CCCO (centres undefined) | -0.894
Cc1ccc2c(c1)N(CC(=O)N1CCCCC1c1cccnc1)C(=O)CO2 (centres undefined) | -0.309
COCCn1c(SCC(=O)Nc2ccc(N3CCOCC3)cc2)nc2ccccc21 | -0.228
O=C(CN1CCN(Cc2ccccc2Cl)C1=O)NCC1CCCO1 (centres undefined) | -0.183
COc1ccc(CNc2ccc(S(N)(=O)=O)cc2)cc1 | -0.186
COc1ccc(N2C(=O)CCC2(C#N)c2ccc(Br)cc2)cc1 (centres undefined) | -0.0943
CC(C)(C)C1CCc2c(sc(NC(=O)c3cc(C4CC4)on3)c2C#N)C1 (centres undefined) | 0.662
COc1cc(/C=N/N=C2\CC3CCC2(C)C3(C)C)ccc1O (centres undefined) | 0.00478
CCOc1cc2nc(-c3ccc(OC)c(OC)c3)nc(N3CC(C)OC(C)C3)c2cc1OC (centres undefined) | -0.68
Cc1ccc(NC(=O)c2cc(NC(=O)CCC(=O)O)ccc2N2CCCCC2)cc1 | active: 4.06
Cc1ccc(CNC(=O)CSc2nc(N3CCCCC3)nc(N3CCCCC3)n2)cc1 | -0.805
CN(C)Cc1c(O)ccc2occ(C(=O)c3ccccc3)c12 | 0.136
CCc1ccc(NC(=O)C2CCN(S(=O)(=O)c3c(C)[nH]c(=O)[nH]c3=O)CC2)cc1 | -0.42
Cc1ccc(C2=NN(CCC(=O)NCc3ccc4c(c3)OCO4)C(=O)CC2)cc1 | -0.148
O=C1CCC(=O)N1CNc1ccc(Oc2ccccc2)cc1 | -0.173
COc1ccccc1/C=N\Nc1cc(C)nc(-n2nc(C)cc2C)n1 | -0.0701
C=CC(=C)CC(NC)c1ccccc1 (centres undefined) | 0.239
Cc1nnc(SCC(=O)Nc2nsc(-c3ccc(C(C)(C)C)cc3)n2)s1 | -0.00925
Cc1ccc2nc(SCC(=O)Nc3cc([N+](=O)[O-])ccc3F)[nH]c2c1 | -0.422

Compound | z-score
O=c1c2ccccc2oc2nc(-c3ccco3)n(-c3ccccc3)c(=O)c12 | -0.104
CC(Sc1nncn1-c1ccccc1)C(=O)Nc1cccc([N+](=O)[O-])c1 (centres undefined) | -0.46
Cc1ccc(C)c(Cc2c(C)nc3c(C(=O)NCc4ccc5c(c4)OCO5)cnn3c2C)c1 | -0.983
COc1ccc2c(c1)c1ncnc(N3CCN(Cc4ccc5c(c4)OCO5)CC3)c1n2C | 0.202
CCCCCCCOc1ccc(OC(=O)c2ccncc2)cc1 | -0.427
COc1ccc(OC)c(-n2nnnc2SCC(=O)Nc2cc(C)ccc2OC)c1 | -0.462
Cc1nn2c3c(cnc2c1-c1ccccc1)C(=O)CC(C)C3 (centres undefined) | -0.361
O=C(CCCn1c(SCC(=O)c2ccc(F)cc2)nc2ccccc2c1=O)NCc1ccco1 | 0.194
CC(=O)OC(Cn1ccnc1)c1ccccc1 (centres undefined) | 0.415
CCOc1cc(S(=O)(=O)N(CC)CC)c(OCC)cc1-n1cnnn1 | -0.332
CC(C)C(c1nnnn1C(C)(C)C)N1CCOCC1 (centres undefined) | 0.0185
CC(=O)NCCn1c(SCc2ccc(C)cc2)nc2ccccc2c1=O | -0.294
Cn1c(=O)c2c(ncn2CC(=O)Nc2ccccc2Sc2ccccc2)n(C)c1=O | -0.019
COc1ccc(/C=C/C(=O)N2CCN(S(=O)(=O)/C=C/c3ccccc3)CC2)cc1OC | active: -3.39
Cc1cc(=O)n2[nH]c(C)c(-c3ccccc3)c2n1 | -0.675
CC(C)OCCCNc1ncnc2c1[nH]c1ccccc12 | -0.338
CC(C)Cn1c(-c2ccc(C#N)cc2)nc2c1c(=O)[nH]c(=O)n2CC(C)C | 0.0242
CCOC(=O)CSc1nc2cc3c(cc2cc1C#N)OCO3 | 0.0956
Nc1ccc(-c2nnc(-c3ccc(-c4ccccc4)cc3)o2)cc1 | -0.17
CC1(C)CC(=O)C(C=NCCN2CCN(C(=S)Nc3cccc(Cl)c3)CC2)=C(O)C1 | -0.0668
O=C(Nc1cnc2ccccc2c1)c1ccncc1 | -0.0962
O=C1CC(N2CCN(C/C=C/c3ccccc3)CC2)C(=O)N1Cc1cccs1 (centres undefined) | 0.565

Compound | z-score
CC(C)COP(=O)(OCC(C)C)C(O)c1ccc(F)cc1 (centres undefined) | 0.263
COc1ccc2[nH]c(C)c(CCN(Cc3cccs3)C(=S)Nc3ccccc3OC)c2c1 | -0.0821
O=C(c1ccc2snnc2c1)N1CCN(c2ccccn2)CC1 | -0.329
COC(=O)c1cn(NC(=O)C2CCC(C)CC2)c(=O)c2ccccc12 (centres undefined) | -0.0485
CC(OC(=O)c1cc(-c2cccnc2)nc2ccccc12)C(=O)Nc1ccc2ccccc2c1 (centres undefined) | -0.277
COc1cc(OC)cc(-c2nnc(SCC(=O)N3CCCC3)o2)c1 | -0.103
CC(CNS(=O)(=O)c1cc(Cl)ccc1Cl)CN(C)C (centres undefined) | 0.474
COCCN(C(=S)Nc1ccccc1OC)C1CCN(C(C)=O)CC1 | -0.367
O=C(CN1CCN(c2ccccc2)CC1)N1N=CCC1c1ccccc1 (centres undefined) | 0.109
COc1ccc(Br)cc1CN(C)CC(=O)Nc1c(Cl)cccc1Cl | -0.245
O=C(Nc1cccc2c1CCCC2)c1ccc(Br)o1 | -0.941
Cc1cc(C(F)(F)F)c2c(=O)[nH]c(=O)n(Cc3ccccc3)c2n1 | active: -3.29
CC(=O)N(c1ccccc1)c1ccc([N+](=O)[O-])cc1[N+](=O)[O-] | -0.168
CC(=O)Nc1cccc(N2C(=O)CCC2=O)c1 | 0.49
COc1cc(OC)c(C2N(c3ccc(Cl)cc3)C(=O)C3CCCN32)cc1OC (centres undefined) | 0.129
O=C(O)c1ccccc1C(=O)Nc1ccccn1 | 0.194
Cc1ccc(N=Nc2c(N)nn(-c3ccccc3)c2N)cc1 | -0.169
Cc1ccc(N2C(=O)C3NN=C(C(=O)OCc4ccccc4)C3C2=O)c(C)c1 (centres undefined) | -0.193
COc1ccc(S(=O)(=O)Cc2ccc(C(=O)N3CCc4ccccc4C3)o2)cc1 | -0.356
CCOc1ccccc1N1CCN(C(=O)C(F)(F)F)CC1 | -0.337
CC[n+]1c(-c2ccc(C)cc2)csc1Nc1c(C)n(C)n(-c2ccccc2)c1=O | -0.519
O=C(c1ccc(S(=O)(=O)N2CCOCC2)cc1)N1CCN(c2ccccc2F)CC1 | -0.395

Compound | z-score
Cc1ccc(OCC(=O)NCc2cccs2)cc1 | 0.0592
O=C(CN1CCC(n2nnc3cc(F)ccc32)CC1)Nc1ccc2c(c1)CCC2 | -0.25
CC(C)Cn1c(NCCO)nc2ccccc21 | -0.517
CCOC(=O)C1=C(C)NC(C)=C(C(=O)OCC)C1C(=O)OCC(=O)c1ccc2c(c1)OCCO2 | -0.495
O=C(N/N=C/c1ccc2ccccc2c1)c1ccc(COc2ccc3c(c2)CCC3)o1 | -0.0437
CC(C)C(=O)NC(=S)Nc1ccc(S(=O)(=O)N2CCCC2)cc1 | -0.314
Cc1ccccc1C(=O)NN1CCOCC1 | -0.107
CCn1c(SCC(=O)N2CCN(c3ccc(F)cc3)CC2)nnc1-c1ccncc1 | 0.119
Cc1noc(C)c1S(=O)(=O)NCCCN1CCN(Cc2ccccc2)CC1 | -0.225
Cc1ccc(OCC(=O)NC2CCS(=O)(=O)C2)cc1 (centres undefined) | -0.0588
CCO/C(C)=C1\C(=O)N(CC)c2ccccc21 | -0.822
COc1ccc(N2CC(C(=O)Nc3ccc(N4CCOCC4)cc3)CC2=O)cc1 (centres undefined) | 0.399
O=C(CCN1C(=O)c2ccccc2C1=O)N1CCN(Cc2ccccc2)CC1 | -0.0174
S=C(NCC1COc2ccccc2O1)Nc1ccc(Br)cc1 (centres undefined) | -0.41
CC/C(=N\OC(=O)c1ccc(OC(C)C)cc1)c1ccc(C)cc1 | 0.271
O=C(C(Cc1ccccc1)n1cccc1)N1CCN(c2ccccc2)CC1 (centres undefined) | -0.211
COc1ccc(-c2nnn(CCc3nn[nH]n3)n2)cc1 | -0.103
Cc1cccc(N2C(=O)CC(Sc3nnc(C)s3)C2=O)c1 (centres undefined) | -0.108
O=C1OC(Nc2ccc3ncccc3c2)c2ccccc21 (centres undefined) | -0.219
COc1cc(C(=O)OCCNC(=O)c2ccncc2)cc(OC)c1OC | -0.237
CCCCCCCCOC(=O)c1ccc(N)cc1 | -0.528
CCN(CC)CCCNC(=O)Cn1ncc2c(=O)oc3ccc(C)cc3c21 | -0.158

Compound | z-score
CN(CC(=O)NCCc1ccccc1)S(=O)(=O)c1cccs1 | 0.69
CC(=O)c1ccc(-n2nnnc2SCC(=O)Nc2cccc(NC(=O)c3ccco3)c2)cc1 | -0.263
COc1ccc(-n2nc3c(c2NC(=O)C2CC2)CS(=O)C3)cc1 (centres undefined) | 0.0323
CCOC(=O)C(NC(=O)NC1CCCCC1)(c1ccccc1)C(F)(F)F (centres undefined) | -0.42
Cc1ccc(S(=O)(=O)Nc2ccc(S(=O)(=O)NC(C)(C)C)cc2)cc1 | -0.0722
CCOc1ccccc1N1CCN(C(=S)NCc2ccco2)CC1 | -0.442
CCCOP(=O)(c1ccc(N(C)C)cc1)C(Nc1ccccc1)c1ccc(N(C)C)cc1 (centres undefined) | 0.25
COc1cccc(CN2CCNC(=O)C2CC(=O)O)c1OC (centres undefined) | 0.165
N#Cc1cn(-c2ccccc2)nc1-c1ccco1 | -0.0798
CC(C)CCn1cnc2c(sc3nc4c(cc32)CSC(C)(C)C4)c1=O | -0.32
C[C@H](N)c1nnc(SCC(=O)c2ccc(Cl)cc2)o1 | 0.0936
CN1/C(=C/C(=O)c2nc(S(C)(=O)=O)ncc2Cl)C(C)(C)c2ccccc21 | -0.00936
CC(=O)C1=C(c2ccccc2)OC(N)=C(C#N)C1c1ccc(O)cc1 (centres undefined) | -0.487
O=C(Nc1ccccc1)Nc1ccc(C(=O)N2CCOCC2)cc1 | -0.0267
COc1ccc(OCC(=O)N/N=C/c2ccc(O[C@@H]3O[C@H](CO)[C@@H](O)[C@H](O)[C@H]3O)cc2)cc1 | 0.158
Cc1nnc(SCCn2c(N3CCCC(C)C3)nc3c2c(=O)n(C)c(=O)n3C)s1 (centres undefined) | -0.358
Oc1ccc(Cl)cc1C1=NCCNC(C(F)(F)C(F)F)=C1 | -0.383
COc1ccc(NC(=S)N/C(=N/CS(=O)(=O)c2ccccc2)c2ccccc2)cc1 | -0.694
Cc1ncc(S(=O)(=O)c2ccccc2)c(-c2ccccc2)n1 | 1.19
O=C1CC(c2ccco2)CC(O)=C1C=NCC1CCNCC1 (centres undefined) | -0.0532
COc1ccc(NS(=O)(=O)c2ccc(N3CCOCC3)c(NC(=O)c3ccc(F)cc3)c2)cc1 | 0.163
